# Whole data set: some 2,900 compounds, median “IRF Lucia reporter activity, fold change vs agonist alone” near 0.9, cut for the highest 2% near 2.8. The list shows a part of the results.
# Key:
# [1] = test system: RAW-Dual; assay: IRF Lucia reporter activity, fold change vs agonist alone; higher = enhanced IRF activity; conditions: agonist: MPLA (TLR4) […]
# Summary of the method: (§1)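 RAW-Dual macrophages were seeded in DMEM at 50,000 cells/well in 384-well plates, given 50 nL of library stock by pin tool, and given a PRR agonist 1 h later. Plates were held at 37 °C, 5% CO2 for 20 hours, after which supernatant was read for IRF by QuantiLuc luminescence and for NF-κB by QuantiBlue absorbance at 620 nm. Reporter activity is expressed as fold change over wells that received agonist alone. A well was called cytotoxic when IncuCyte confluency fell below 70% of agonist controls in both mask sets.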
# [2] = test system: RAW-Dual; assay: IRF Lucia reporter activity, fold change vs agonist alone; cytotoxicity flag (confluency mask): not cytotoxic; higher = enhanced IRF activity
# Summary of the method: as §1
# [3] = test system: RAW-Dual; assay: IRF Lucia reporter activity, fold change vs agonist alone; cytotoxicity flag (confluency mask): cytotoxic (confluency <70% of control); higher = enhanced IRF activity
# Summary of the method: as §1
# [4] = library stock concentration (final ~1000-fold dilution): 10 mM, cytotoxicity flag (confluency mask): not cytotoxic
# [5] = agonist: 3'3'-cGAMP (STING) 10 ug/mL
# [6] = library stock concentration (final ~1000-fold dilution): 10 mM, cytotoxicity flag (confluency mask): cytotoxic (confluency <70% of control)
structure (smiles),measurement,setting,value
CCNC(=O)c1noc(-c2cc(Cl)c(O)cc2O)c1-c1ccc(OC)cc1,IRF Lucia reporter activity,[1]; [4],0.818
Cn1ncc(Cl)c1-c1cc(C(=O)NC(CN)Cc2cccc(F)c2)sc1Cl (configuration not stated) (library stock concentration (final ~1000-fold dilution): 10 mM),IRF Lucia reporter activity,[2]; [5],0.627
same,IRF Lucia reporter activity,[2]; agonist: LPS (TLR4) 0.1 ug/mL,1.2
Cn1ncc(Cl)c1-c1cc(C(=O)NC(CN)Cc2cccc(F)c2)sc1Cl (configuration not stated),IRF Lucia reporter activity,[1]; [4],1.46
CCOc1nc2cccc(C(=O)O)c2n1Cc1ccc(-c2ccccc2-c2nc(=O)o[nH]2)cc1 (library stock concentration (final ~1000-fold dilution): 10 mM),IRF Lucia reporter activity,[2]; [5],1.04
same,IRF Lucia reporter activity,[2]; agonist: LPS (TLR4) 0.1 ug/mL,1.1
CCOc1nc2cccc(C(=O)O)c2n1Cc1ccc(-c2ccccc2-c2nc(=O)o[nH]2)cc1,IRF Lucia reporter activity,[1]; [4],1.16
CC=CCC(C)C(O)C1C(=O)NC(CC)C(=O)N(C)CC(=O)N(C)C(CC(C)C)C(=O)NC(C(C)C)C(=O)N(C)C(CC(C)C)C(=O)NC(C)C(=O)NC(C)C(=O)N(C)C(CC(C)C)C(=O)N(C)C(CC(C)C)C(=O)N(C)C(C(C)C)C(=O)N1C (configuration not stated) (library stock concentration (final ~1000-fold dilution): 10 mM),IRF Lucia reporter activity,[2]; [5],0.661
same,IRF Lucia reporter activity,[2]; agonist: LPS (TLR4) 0.1 ug/mL,1.03
CC=CCC(C)C(O)C1C(=O)NC(CC)C(=O)N(C)CC(=O)N(C)C(CC(C)C)C(=O)NC(C(C)C)C(=O)N(C)C(CC(C)C)C(=O)NC(C)C(=O)NC(C)C(=O)N(C)C(CC(C)C)C(=O)N(C)C(CC(C)C)C(=O)N(C)C(C(C)C)C(=O)N1C (configuration not stated),IRF Lucia reporter activity,[1]; [4],0.735
COc1ccc(C(NC(=O)c2cnc(-c3cccnn3)nc2O)c2ccc(OC)cc2)cc1 (library stock concentration (final ~1000-fold dilution): 10 mM),IRF Lucia reporter activity,[2]; [5],0.924
same,IRF Lucia reporter activity,[2]; agonist: LPS (TLR4) 0.1 ug/mL,1.03
CCOc1cc(C(CS(C)(=O)=O)N2C(=O)c3cccc(NC(C)=O)c3C2=O)ccc1OC (configuration not stated) (library stock concentration (final ~1000-fold dilution): 10 mM),IRF Lucia reporter activity,[2]; [5],0.968
same,IRF Lucia reporter activity,[2]; agonist: LPS (TLR4) 0.1 ug/mL,0.75
CCOc1ccc2ccccc2c1C(=O)NC1C(=O)N2C1SC(C)(C)C2C(=O)O (configuration not stated) (library stock concentration (final ~1000-fold dilution): 10 mM),IRF Lucia reporter activity,[2]; [5],1.09
same,IRF Lucia reporter activity,[2]; agonist: LPS (TLR4) 0.1 ug/mL,1.27
CCOc1ccc2ccccc2c1C(=O)NC1C(=O)N2C1SC(C)(C)C2C(=O)O (configuration not stated),IRF Lucia reporter activity,[1]; [4],1.16
O=C(N/N=C/c1ccc([N+](=O)[O-])o1)c1ccc(O)cc1,IRF Lucia reporter activity,[1]; [6],1.32
O=C(N/N=C/c1ccc([N+](=O)[O-])o1)c1ccc(O)cc1 (library stock concentration (final ~1000-fold dilution): 10 mM),IRF Lucia reporter activity,[3]; [5],0.611
same,IRF Lucia reporter activity,[3]; agonist: LPS (TLR4) 0.1 ug/mL,1.12
Cc1cc(NC(=O)c2cccc(NC(=O)/C=C/CN(C)C)c2)ccc1Nc1nccc(-c2cccnc2)n1 (library stock concentration (final ~1000-fold dilution): 10 mM),IRF Lucia reporter activity,[2]; [5],0.0822
same,IRF Lucia reporter activity,[2]; agonist: LPS (TLR4) 0.1 ug/mL,0.143
Cc1cc(NC(=O)c2cccc(NC(=O)/C=C/CN(C)C)c2)ccc1Nc1nccc(-c2cccnc2)n1,IRF Lucia reporter activity,[1]; [4],0.264
CCOc1cc2ncc(C#N)c(Nc3ccc(OCc4ccccn4)c(Cl)c3)c2cc1NC(=O)/C=C/CN(C)C (library stock concentration (final ~1000-fold dilution): 2 mM),IRF Lucia reporter activity,[2]; [5],0.302
same,IRF Lucia reporter activity,[2]; agonist: LPS (TLR4) 0.1 ug/mL,0.0254
CCOc1cc2ncc(C#N)c(Nc3ccc(OCc4ccccn4)c(Cl)c3)c2cc1NC(=O)/C=C/CN(C)C,IRF Lucia reporter activity,"[1]; library stock concentration (final ~1000-fold dilution): 2 mM, cytotoxicity flag (confluency mask): not cytotoxic",0.922
Oc1cc(CNC(=S)/C=C/c2cc(O)c(O)c(Br)c2)cc(O)c1O (library stock concentration (final ~1000-fold dilution): 10 mM),IRF Lucia reporter activity,[2]; [5],0.312
same,IRF Lucia reporter activity,[2]; agonist: LPS (TLR4) 0.1 ug/mL,4.35
COc1cc(OC)c(/C=C2/C(=O)Nc3ccccc32)c(OC)c1 (library stock concentration (final ~1000-fold dilution): 10 mM),IRF Lucia reporter activity,[2]; [5],0.185
same,IRF Lucia reporter activity,[2]; agonist: LPS (TLR4) 0.1 ug/mL,1.39
CC(C)(C)NCC(O)COc1nsnc1N1CCOCC1.O=C(O)/C=C\C(=O)O (configuration not stated),IRF Lucia reporter activity,[1]; [4],1.01
CC(C)(C)NCC(O)COc1nsnc1N1CCOCC1.O=C(O)/C=C\C(=O)O (configuration not stated) (library stock concentration (final ~1000-fold dilution): 10 mM),IRF Lucia reporter activity,[2]; [5],1.04
same,IRF Lucia reporter activity,[2]; agonist: LPS (TLR4) 0.1 ug/mL,0.977
O=C(NC(NC(=S)Nc1ccc(F)c([N+](=O)[O-])c1)C(Cl)(Cl)Cl)C(c1ccccc1)c1ccccc1 (configuration not stated),IRF Lucia reporter activity,[1]; [6],0.22
O=C(NC(NC(=S)Nc1ccc(F)c([N+](=O)[O-])c1)C(Cl)(Cl)Cl)C(c1ccccc1)c1ccccc1 (configuration not stated) (library stock concentration (final ~1000-fold dilution): 10 mM),IRF Lucia reporter activity,[3]; [5],0.0204
same,IRF Lucia reporter activity,[3]; agonist: LPS (TLR4) 0.1 ug/mL,0.154
CC1OC(OC2C(Oc3cc(O)c4c(c3)OC(c3ccc(O)cc3)CC4=O)OC(CO)C(O)C2O)C(O)C(O)C1O (configuration not stated),IRF Lucia reporter activity,[1]; [4],1.04
CC1OC(OC2C(Oc3cc(O)c4c(c3)OC(c3ccc(O)cc3)CC4=O)OC(CO)C(O)C2O)C(O)C(O)C1O (configuration not stated) (library stock concentration (final ~1000-fold dilution): 10 mM),IRF Lucia reporter activity,[2]; [5],1.03
same,IRF Lucia reporter activity,[2]; agonist: LPS (TLR4) 0.1 ug/mL,0.903
COC1=C2CC(C)CC(OC)C(O)C(C)/C=C(\C)C(OC(N)=O)C(OC)/C=C/C=C(\C)C(=O)NC(=CC1=O)C2=O (configuration not stated) (library stock concentration (final ~1000-fold dilution): 10 mM),IRF Lucia reporter activity,[3]; [5],0.309
same,IRF Lucia reporter activity,[3]; agonist: LPS (TLR4) 0.1 ug/mL,0.0119
COC1=C2CC(C)CC(OC)C(O)C(C)/C=C(\C)C(OC(N)=O)C(OC)/C=C/C=C(\C)C(=O)NC(=CC1=O)C2=O (configuration not stated),IRF Lucia reporter activity,[1]; [6],0.507

# Reference: the supplement of paper PMC10037445
